For 14 molecules, binding signal results are on record in publication PMC12136788.

Some of the results follow.

The labels stand for the following.
T1: UNK ZnF1-3 (human, UniProt Q9C0B0 31-174)
T1 sequence: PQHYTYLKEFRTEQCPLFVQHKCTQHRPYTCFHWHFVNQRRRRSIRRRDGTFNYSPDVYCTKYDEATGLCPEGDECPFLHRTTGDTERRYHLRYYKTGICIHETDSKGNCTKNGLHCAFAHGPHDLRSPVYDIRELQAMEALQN

B1: chr8:71637431:71637432:+_ENSMUSG00000006273_ENSMUST00000006435|mus_hu|FALSE|FALSE (ssRNA)
RNA: GGGAGUUCUACAGUCCGACGAUCCACGGGGUAGGGAAGUUGCUAUUGCACCCAAGUAACAAAGAACACAGAGAGACCAACAGGACGCAUGGCAGAACUGCAUAGAAGAUCGCUCAGGGCUCACGUCAGGAAGGCGCAGGAAUUCAACAGAGGAUUGAGCAUCA
B2: chr2:24647629:24647630:-_ENSMUSG00000036893_ENSMUST00000134775|mus_mus|FALSE|FALSE (ssRNA)
RNA: GGGAGUUCUACAGUCCGACGAUCGCCGACACUUGGAAGACCCACACCGGCAACUGAAGAGCUUGCCCUUGACGUCCCAAAAGCGCUCCCCGUAGUCGAACCCGAGCUGCUCCCCAGCCUGAAUCAGGCGGGUACUGAAGAAGGCAACAGAGGAUUGAGCAUCA
B3: chr16:8843179:8843180:+_ENSMUSG00000022507_ENSMUST00000023150|mus_hu|FALSE|FALSE (ssRNA)
RNA: GGGAGUUCUACAGUCCGACGAUCUGGGGGAGCUCUAGAGUUUCGUGGUGGAGGAACUUUUCCACACAGGAAGCUGAUCAAAUCUUCUCGACGAAUAGUUCUUCUGCGUUUUUUAACCCAAGCCAACACAUCCUUAUUGCGUCGCAACAGAGGAUUGAGCAUCA
B4: chr10:5827197:5827198:-_ENSG00000057608_ENST00000380191|perfect_dup|motif|central (ssRNA)
RNA: GGGAGUUCUACAGUCCGACGAUCAUACAGGUACGGGCUUUUACCGUAUCUUGCCAAAGACUCGCUGUAAAGUUUAAUUCGGUUAAUGGUUUCACAACACGGCUGAUCUAAGUAGUCAUCUGUUCUGUACAGUGCAAGAGAAUGCAACAGAGGAUUGAGCAUCA
B5: chr10:62551973:62551974:+_ENSG00000170312_ENST00000395284|hu_hu|FALSE|FALSE (ssRNA)
RNA: GGGAGUUCUACAGUCCGACGAUCUAACAUUUUCGAGAGCAAAUCCAAGCCAUUUUCAUCCAAGUUUUUGACAUGGGAUGCUAGGCUUCCUGGUUUCCAUUUGGGAAAUGUAUUCUUAUAGUCCUGUAAAGAUUCCACUUCUGGCAACAGAGGAUUGAGCAUCA
B6: chr5:4083222:4083223:-_ENSMUSG00000001467_ENSMUST00000001507|perfect_dup|FALSE|FALSE (ssRNA)
RNA: GGGAGUUCUACAGUCCGACGAUCGGUGUGGAUCAUUGUUGUAUAAUUCACAGUGGGAAAAUAUCCAUUGAUGAGGUCAAAUUCAUAUAAACGAAGCAUAGUCGACCAAAUUGUCUUAAUUUGAACAUAGGCAAAAUUUUCUCCCAACAGAGGAUUGAGCAUCA
B7: chr8:17827181:17827182:+_ENSG00000078674_ENST00000519253|hu_mus|FALSE|FALSE (ssRNA)
RNA: GGGAGUUCUACAGUCCGACGAUCGCUUUCAAAGGGUUUUGGAAAAGCCAUAUACUCUGUUUUCCCUGAAGGAUUUUGAGCUAAUGGCUGCUGCUGUUCAGUAGGUGUAGAAACAUUCUGAGAAAAAUCUCCAAAAUUAGAAGGCAACAGAGGAUUGAGCAUCA
B8: chr4:124323795:124323796:+_ENSG00000164056_ENST00000339241|hu_mus|motif|central (ssRNA)
RNA: GGGAGUUCUACAGUCCGACGAUCCCACUCCUAUUGAGGCCCAUCCAAGGCAGGAGAGACUCGAGAAGAAAAUCUGCCUCGGAUACCAACAGCCAAAGUUUGGAAGCUAGACAUUCCGCGGAGGUCCAACCCACCUCCAGAAGUCAACAGAGGAUUGAGCAUCA
B9: chr3:20019835:20019836:+_ENSG00000144566_ENST00000273047|hu_mus|FALSE|FALSE (ssRNA)
RNA: GGGAGUUCUACAGUCCGACGAUCCAUAAAUAUUUCAUUUACAUUCAUUGAUGUCUUAGCUGAUGUCUCCAUAAAUAAUAAGCUGUUGUCAUCUGCAUAGGACUGUGCUUCCUGGAAGUCAACAGCUCUUUUAUUUGCUAAGUCCAACAGAGGAUUGAGCAUCA
B10: chr11:87793471:87793472:-_ENSMUSG00000020483_ENSMUST00000020775|mus_mus|mus_mus_mus_hu_False|8_108 (ssRNA)
RNA: GGGAGUUCUACAGUCCGACGAUCUGGGGGCUGGGGAAAAAGAAUAAGCUGGAUCCCCCACCCCCCCACAUUGUCAACCCUACACGAGAGUUUUGAAGGCGACUCAUGAAAAUCAGCAGCUCAAACGAAUGACAACCCCCCACCCAACAGAGGAUUGAGCAUCA
B11: 90057964_90058084_118_5pUTR_ENSMUSG00000032363_ENSMUST00000113059|mouse|control|control (ssRNA)
RNA: GGGAGUUCUACAGUCCGACGAUCAUGGCCCGGACGGGGUGGCCGCAGGACGACCCCUGUGCACUCCUUCGUCUACGCCGUUGCGUCCCAGCCGGGCCUGGGUCCGACUCAGGACAUGCCUGGCUUUAAACUCUUCCCAAGGUCCAACAGAGGAUUGAGCAUCA
B12: chr4:76721835:76721836:+_ENSG00000138768_ENST00000264904|hu_mus|hu_hu_hu_mus_True|8_18 (ssRNA)
RNA: GGGAGUUCUACAGUCCGACGAUCGUUUGGCUGGGGUUUCUGAGACGCUCUGGAAUAUAACUCAUGUUUGCUAAUAAAUCCUAGUUUCUCUAUGAAAUUCUCUUUGCCAAUCCUCUUUCAAUCAGUUGUUUUAGCUUUCUCUUUCAACAGAGGAUUGAGCAUCA
B13: 13816878_13816998_1800_CDS_ENSMUSG00000006586_ENSMUST00000098257|mouse|control|control (ssRNA)
RNA: GGGAGUUCUACAGUCCGACGAUCCGGGGUGGUAGACCUCGGAGUGGCUGCUGGUGGUGUGUCCAUUGGGCUCCCAGCCCCACUGCUGGGUGUGACUGAGGAGCUGACAGCGGGCGUGUCUCCCUGCUGUGGGGCCUGCAGGGUCAACAGAGGAUUGAGCAUCA
B14: chr4:140556289:140556290:+_ENSMUSG00000036622_ENSMUST00000037055|mus_mus|mus_mus_mus_hu_False|18_88 (ssRNA)
RNA: GGGAGUUCUACAGUCCGACGAUCGAUGGAGCUCACCAGGCCCCCUUUGGCUGUGCAGAACCCUGUGCGGGUCACCACUGCCAGGACGUGCGGUCCCACAUAGGCCCGGGCCUGCAAAAUGAGGGUGCCGCAGAAGAGUGUGUGCAACAGAGGAUUGAGCAUCA

The assay concerns the target T1, UNK ZnF1-3. Briefly: nsRBNS (natural sequence RNA bind-n-seq); RBNS binding buffer (assumed for nsRBNS): 25 mM Tris pH 7.5, 150 mM KCl, 3 mM MgCl2, 0.01% Triton X-100, 500 ug/ml BSA, 20 U/ml SUPERase-In, 4 C; UNK is unkempt and MSI1 is Musashi-1; names of the RNAs are library labels; protein concentration not given here; high values mean tight binding.
In the case of B1, the binding signal worked out at 1.49 enrichment R. As to B2, the binding signal turned out to be 1.12 enrichment R. As for B3, the binding signal worked out at 0.575 enrichment R. The figure for B4 is 0.588 enrichment R; for B5 it is 0.477 enrichment R. The molecule B6 displayed a binding signal of 0.915 enrichment R. The same measure for B7: 1.26 enrichment R. The figure for B8 is 0.998 enrichment R; for B9 it is 0.742 enrichment R; for B10 it is 1.81 enrichment R. The same measure for B11: 0.645 enrichment R; for B12: 0.555 enrichment R. On to B13, for which the binding signal is 0.779 enrichment R. In turn, B14 displayed a binding signal of 1.71 enrichment R.
